Laboratory results published in PubChem BioAssay AID1745845 (National Center for Advancing Translational Sciences (NCATS), 2022).
Screen size: about 360,000 compounds; about 2,600 (0.72%) were called active. The inconclusive results got no clear call from the source; some entries with a clear call stand among them for comparison. Calls follow the shape of the dose curve; as a rule, active = well fitted inhibition curve with a large enough effect; inconclusive = small, poorly fitted or top-dose-only effect; inactive = no such curve, though single readings can be large or run the other way. Potencies beside an inconclusive call are fits to weak or partial responses and may not hold up.

Experiment: Primary qHTS for Inhibitors of ATXN expression; also: nearly all actives have a fitted effect of over 55% in size
Details: HEK-293 ATXN2-luciferase reporter, luminescence, 24 h; activity change, negative = inhibition: at 57 µM (top of the series)
Summary of the method: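 ATXN2-luciferase reporter cells (luciferase flanked by upstream and downstream ATXN2 gene portions) were treated 24 h at 37 °C with compounds at up to 57 uM. SteadyGlo luminescence gave expression; GF-AFC fluorescence gave viability.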
% is scaled to controls: 0 for no effect and ±100 for the full control effect; potency is read from the fitted curve at half-maximal effect; tags tell the direction and shape of the fitted curve.

Structure (SMILES) | Potency | activity change, negative = inhibition
COC(=O)C1=C(c2ccc(OC(F)(F)F)cc2)C[C@@H]2CC[C@H]1N2C(=O)NC1CCCCC1 | inconclusive: 22.4 µM [inhibitor, single point] | 
O=[N+]([O-])c1ccc(C(c2ccc([N+](=O)[O-])cc2)c2ccc([N+](=O)[O-])cc2)cc1 | active: 31.6 µM | 
CC1(C)COC(Nc2cccc(Cl)c2)=N1 |  | inactive: 8.95%
Cc1ccc(OC(=O)N(C)C[C@@H]2OCc3cnnn3CCCC(=O)N([C@@H](C)CO)C[C@@H]2C)cc1 |  | inactive: -8.57%
CC(=NCCc1c[nH]c2ccccc12)c1c(O)n(Cc2ccccc2)c(=O)[nH]c1=O | inconclusive: 28.2 µM [inhibitor, single point] | 
CC(=O)OC1(c2ccccc2)CCN(CCc2ccccc2)CC1 | inconclusive: 31.6 µM [inhibitor, full curve] | 
CC(=O)C1CCC2C3C(N4CC4)CC4=CC(=O)CCC4(C)C3CCC12C (stereo not drawn) | inconclusive: 39.8 µM [inhibitor, single point] | 
NC(=O)c1c(Br)n(C2OC(CO)C(O)C2O)c2ncnc(N)c12 (stereo not drawn) | active: 21.2 µM | 
CC(=O)O[C@H]1C[C@@H]2OC3C=C(C)CCC3(C)[C@@]1(C)[C@@]21CO1 (stereo partly drawn) | inconclusive: 1.68 µM [inhibitor, full curve] | 
C[C@@H]1[C@@H](CC(C[C@H]2O[C@@H]3O[C@]4(C)CC[C@@H]5[C@H](C)CC[C@@H]([C@H]2C)[C@@]35OO4)C[S+](=O)([O-])c2ccc(COC(=O)N(C)C)cc2)O[C@@H]2O[C@]3(C)CC[C@H]4[C@H](C)CC[C@@H]1[C@@]24OO3 (stereo partly drawn) | inconclusive: 0.485 µM [inhibitor, full curve] | 
CC(=O)O[C@H]1[C@H]2O[C@]23[C@@H]2CC[C@]4(O)C[C@@H](O)CC[C@]4(C)C2CC[C@]3(C)[C@H]1c1ccc(=O)oc1 (stereo partly drawn) | active: 0.316 µM | 
O=C(N[C@@H](COc1ccc2[nH]c(=O)[nH]c2c1)c1ccccc1)c1cccn(Cc2ccc(F)c(F)c2)c1=O | inconclusive: 43.2 µM [inhibitor, single point] | 
COc1ccc2c(c1O)-c1c(OC)c(OC)cc3c1[C@H](C2)N(C)CC3 |  | inactive: -1.28%
O=c1[nH]c2ccccc2n1C1CCN(C(CCc2ccccc2)c2nnnn2Cc2ccccc2)CC1 (stereo not drawn) | active: 8.91 µM | 
NC(=O)c1cc([N+](=O)[O-])cc([N+](=O)[O-])c1 | inconclusive: 12.6 µM [inhibitor, partial curve, poor fit] | 
COC(=O)C1=C(c2cc3ccccc3s2)C[C@@H]2CC[C@H]1N2C(=O)NCc1ccc(C(F)(F)F)cc1 | inconclusive: 35.5 µM [inhibitor, single point] | 
CNCC(O)c1cc(OCc2ccccc2)c(OCc2ccccc2)cc1F (stereo not drawn) | inconclusive: 22.4 µM [inhibitor, partial curve, poor fit] | 
Cc1ccnc(NC(=O)CCCc2ccc(N(CCCl)CCCl)cc2)n1 | inconclusive: 22.4 µM [inhibitor, single point] | 
CC(=O)OC1C2(CC3N4C(=O)C5(CO)SSC4(CC31O)C(=O)N5C)OC(C)C(C)(C)C2=O (stereo not drawn) | inconclusive: 4.23 µM [inhibitor, full curve, poor fit] | 
C[C@@]12OC(=O)[C@]1([C@@H](O)[C@@H]1C=CCCC1)NC(=O)[C@H]2CCCl | active: 0.0193 µM | 
COC1=CC=C2[C@H]3Cc4ccc(OC)c5c4[C@@]2(CCN3C)[C@H]1O5 |  | inactive: -19.2%

Structure (SMILES) | Potency | activity change, negative = inhibition
CN1C(=O)/C(=C/c2ccc(Cl)s2)C(=O)NC1=S | inconclusive: 14.1 µM [inhibitor, single point] | 
COC(=O)C1=C(c2ccccc2OCc2ccccc2)C[C@@H]2CC[C@H]1N2C(=O)NCCOc1ccccc1Cl | inconclusive: 39.8 µM [inhibitor, partial curve, poor fit] | 
Cn1c(CCCC(=O)O)nc2cc(N(CCCl)CCCl)ccc21 | inconclusive: 24.3 µM [inhibitor, partial curve] | 
O=C1CN=C(c2ccccc2)c2cc(Cl)ccc2N1Cc1ccc(Cl)cc1 |  | inactive: -6.64%
CCC1(OC(=O)CN)C(=O)OCc2c1cc1n(c2=O)Cc2cc3ccccc3nc2-1 (stereo not drawn) | active: 0.0095 µM | 
C=C1C(=O)OC2CC(C)C3C=CC(=O)C3(C)C(O)C12 (stereo not drawn) | inconclusive: 0.67 µM [inhibitor, full curve, poor fit] | 
COC(=O)C1=C(c2ccc(Cl)c(C(F)(F)F)c2)C[C@@H]2CC[C@H]1N2C(=O)NCc1cc(C)oc1C(F)(F)F | inconclusive: 28.2 µM [inhibitor, partial curve, poor fit] | 
Cc1cc(N2CCNCC2)nc2ccccc12 | inconclusive: 20 µM [inhibitor, single point] | 
CC12CCC(O)CC1CCC1C2CCC2(C)C(C3=CC(=O)OC3)CCC12O (stereo not drawn) | active: 0.844 µM | 
CN1CCc2cc(O)cc3c2[C@H]1Cc1ccc(O)c(O)c1-3 | inconclusive: 4.47 µM [inhibitor, partial curve, poor fit] | 
CC[n+]1c(/C=C/N(C)c2ccccc2)sc2ccc(Cl)cc21 | inconclusive: 15.8 µM [inhibitor, partial curve] | 
Cc1ccsc1C(=O)C1CCCN(Cc2cccc(-n3cccn3)c2)C1 (stereo not drawn) |  | inactive: -26.5%
Cc1ccccc1NC(=NCCCN1CC1)Nc1ccccc1C | inconclusive: 23.8 µM [inhibitor, partial curve, poor fit] | 
C=C(C=O)C[C@@H]1C[C@H](O)C2OC3C[C@]4(C)OC5/C=C\CC6OC7C(CC=CCC6OC5CCCC4OC3CC2O1)OC1CC2OC3CC(=O)OC3C[C@@H](C)C[C@@]2(C)OC1C[C@@H]7C (stereo partly drawn) | active: 1.58 µM | 
O=C1NCN(c2ccccc2)C12CCN(C(c1cc3ccccc3o1)c1nnnn1C1CCCCC1)CC2 (stereo not drawn) | inconclusive: 31.6 µM [inhibitor, single point] | 
C#CC1(O)CCC2C3CCC4=CC(=O)CCC4=C3C=CC21C (stereo not drawn) |  | inactive: 11.1%
O=C(NN=Cc1ccc(N(CCCl)CCCl)cc1)C(=O)c1c[nH]c2ccccc12 | inconclusive: 10 µM [inhibitor, partial curve] | 
CN(C)CC(C(=O)Cc1ccccc1)c1ccccc1 (stereo not drawn) | inconclusive: 28.2 µM [inhibitor, partial curve, poor fit] | 
O=C(Nc1ccccc1)c1cc([N+](=O)[O-])ccc1N1CCNCC1 |  | inactive: -14.5%
CC(C)(C)c1cc(C=C(C#N)C#N)cc(Br)c1O | active: 27.3 µM | 
CCOC(=O)C1(CCc2ccccc2)CCN(Cc2ccc3c(c2)OCCO3)CC1 | inconclusive: 10 µM [inhibitor, partial curve, poor fit] | 

Structure (SMILES) | Potency | activity change, negative = inhibition
COc1cc2c3c(c1OC)Oc1ccc(cc1)C[C@H]1c4c(cc(OC)c(OC)c4Oc4ccc(cc4)C[C@@H]3N(C)CC2)CCN1C | inconclusive: 25.1 µM [inhibitor, partial curve] | 
CC1=CC(=Cc2sc3ccccc3[n+]2C)C=C(C)O1 | inconclusive: 1 µM [inhibitor, full curve, poor fit] | 
COc1ccc(NC(=O)c2cn(CCC#N)nc2-c2cccc([N+](=O)[O-])c2)cc1 |  | inactive: 0.0589%
CCCN(CCC)CCc1c[nH]c2ccccc12 |  | inactive: 1.09% [at 116 µM]
COC(=O)C1=C(c2ccccc2OCc2ccccc2)C[C@@H]2CC[C@H]1N2C(=O)NCc1cccc(F)c1 | inconclusive: 28.2 µM [inhibitor, partial curve, poor fit] | 
COc1cc2cc(C(=O)N3CC(COS(C)(=O)=O)c4ccc(O)cc43)[nH]c2c(OC)c1OC (stereo not drawn) | active: 0.299 µM | 
COC(=O)C1=C(c2ccccc2OCc2ccccc2)C[C@@H]2CC[C@H]1N2C(=O)NCc1ccc(F)cc1 | inconclusive: 31.6 µM [inhibitor, single point] | 
Cc1oc(-c2ccc(Cl)cc2)nc1CN1C(=O)CN=C(c2ccccc2)c2ccccc21 | inconclusive: 28.2 µM [inhibitor, single point] | 
CN1[C@H]2CC(O)C[C@H]1[C@H]1O[C@H]12 (stereo partly drawn) | inconclusive: 34.3 µM [inhibitor, single point] | 
Cc1nn(Cc2ccccc2)c(C)c1C(=O)O |  | inactive: 4.29%
C[C@H]1CCCC=CC2C[C@H](O)C[C@@H]2[C@H](O)C=CC(=O)O1 (stereo partly drawn) | inconclusive: 0.0863 µM [inhibitor, full curve] | 
CC1=CC(C)CC(C)OC(=O)CC(c2ccc(O)cc2)NC(=O)C(Cc2c(Br)[nH]c3ccccc23)N(C)C(=O)C(C)NC(=O)C(C)C1 (stereo not drawn) | inconclusive: 33.6 µM [inhibitor, partial curve, poor fit] | 
O=S1(=O)N(CCN2CC=C(c3c[nH]c4cc(F)ccc34)CC2)c2cccc3c2N1CCC3 | inconclusive: 39.8 µM [inhibitor, single point] | 
CCN(CC)C(=O)c1ccc(C2=CC3(CCNCC3)Oc3cccc(O)c32)cc1 |  | inactive: -4.09%
CCC(C)n1c(O)c(/C=N/Nc2ccccc2)c(=O)[nH]c1=S (stereo not drawn) |  | inactive: -10.9%
Cc1cc(-c2ccccc2)cc(-c2ccccc2)[n+]1CCc1ccccc1 | inconclusive: 25.1 µM [inhibitor, partial curve] | 
O=C(CF)N(O)c1ccc(C=Cc2ccccc2)cc1 | inconclusive: 1.89 µM [inhibitor, full curve] | 
CCOC(=O)[C@]12Cc3cc(OC)ccc3[C@H]1N(CCC(=O)OC)C(=O)c1cc(OC)ccc12 | inconclusive: 39.8 µM [inhibitor, single point] | 
O=Cc1cn(Cc2ccc(F)cc2)c2ccccc12 | active: 14.1 µM | 
O=c1cccc2n1CC1CC2CN(Cc2cccc(Cl)c2Cl)C1 (stereo not drawn) |  | inactive: 0%
CCOC(=O)c1c(-n2c(C)cc(C=C3C(=O)NC(=O)NC3=O)c2C)sc2c1CCCC2 | inconclusive: 28.2 µM [inhibitor, single point] | 
